About 12,000 (3.5%) of roughly 340,000 compounds were called active. The shares of active, inactive and inconclusive entries below differ from those in the screen. The call rests on the fitted dose curve; in most records, active means well fitted inhibition curve with a large enough effect; inconclusive means small, poorly fitted or top-dose-only effect, or another doubt; inactive means no such curve, though single readings can be large or run the other way. No potency is given beside an inconclusive call; the fits are too rough.
assay: qHTS Assay for Inhibitors of Hepatitis C Virus (HCV); conditions: Huh7.5.1 HCVcc-Cre (HCVcc is cell-culture hepatitis C virus) infection, luciferase reporter, 44 h; activity change, negative = inhibition: at 41.8 µM (top of the series)
How it was run: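 After 44 h co-culture of compound, cells and HCVcc-Cre (~0.5 moi), substrate is added for 15 min at room temperature and luciferase measured over 15 sec. Cells were seeded at 1,000/well and pre-cultured 4 h.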
On the % scale 0 is the no-effect control and ±100 the full control effect; potency means the concentration at half of the fitted maximal effect; tags describe the fitted curve by direction and shape.

| Compound | Potency | activity change, negative = inhibition |
| --- | --- | --- |
| CN(Cc1ccccc1)c1ncnc2ccc(Br)cc12 | inconclusive [inhibitor, full curve, poor fit] | – |
| CCn1c(CSc2nc3ccccc3[nH]2)n[nH]c1=S | inconclusive [inhibitor, partial curve, poor fit] | – |
| CCOc1ccc2oc(C(=O)OCC(=O)N3CCCC(C)C3)c(C)c2c1 (stereo unspecified) | inconclusive [inhibitor, partial curve] | – |
| CC[C@@H]1C=C(C(=O)O)[C@H](c2ccc(C)cc2)N1S(=O)(=O)c1ccc(C)cc1 | inconclusive [inhibitor, single point] | – |
| Nc1ccc2nc(-c3ccc(N)c(Cl)c3)[nH]c2c1 | inconclusive [inhibitor, single point] | – |
| COc1cc(OC)c2c(c1)S(=O)(=O)C(c1ccccc1)=C2N | inconclusive [inhibitor, single point] | – |
| COc1ccc(C(=O)C2CCCN(Cc3cnc(N4CCCC4)s3)C2)cc1OC (stereo unspecified) | – | inactive: -9.16% |
| O=C(Nc1ccc(S(=O)(=O)Nc2ncccn2)cc1)c1nn(Cc2ccccc2)c(=O)c2ccccc12 | inconclusive [inhibitor, single point] | – |
| CC(CC(=O)O)CC(=O)NNC(=O)c1cccc(Br)c1 (stereo unspecified) | – | inactive: 7.99% |
| CCOC(=O)C1CCN(c2nc(-c3ccc(C)cc3)nc3ccccc23)CC1 | inconclusive [inhibitor, partial curve] | – |
| CC(C)Oc1cccc(C(=O)Nc2ccccc2N2CCOCC2)c1 | inconclusive [inhibitor, partial curve] | – |
| COc1ccc(C(=O)N/N=C(/C)c2cccc(NC(=O)c3ccccc3F)c2)cc1 | inconclusive [inhibitor, single point] | – |
| CCOC(=O)c1ccc(NC(=O)Nc2ccc(Cl)cn2)cc1 | – | inactive: 19% |
| COC(=O)[C@@H](Cc1c[nH]c2ccccc12)NC(=O)CCC(=O)c1ccc(F)cc1 | – | inactive: 1.87% |
| COc1ccccc1N(C)S(=O)(=O)c1ccc(C(=O)NC(C)c2ccccc2)cc1 (stereo unspecified) | inconclusive [inhibitor, partial curve] | – |
| CCOC(=O)CSC1=NC(=O)/C(=C/c2ccc(OC)cc2)S1 | inconclusive [inhibitor, single point] | – |
| COc1ccc(CN(C)CC(=O)Nc2ccccc2-c2ccccc2)c(OC)c1 | inconclusive [inhibitor, partial curve] | – |
| COc1cccc(CN2CCN(c3nc4nonc4nc3NC3CC3)CC2)c1 | – | inconclusive: -37.8% [inhibitor] |
| CCOc1ccc2nc(NC3=NC(c4ccc(OC)cc4)CC(=O)N3)nc(C)c2c1 (stereo unspecified) | active: 8.91 µM | – |
| Cn1c(=O)c2c(nc(NCc3ccco3)n2CCc2ccccc2)n(C)c1=O | inconclusive [inhibitor, single point] | – |
| COC(=O)c1ccc(CN2CCN(C3CCCC3)C(CCO)C2)cc1 (stereo unspecified) | – | inactive: 9% |
| Cc1cc(N2CCOCC2)nc(SCC(=O)OCc2ccccc2)n1 | inconclusive [inhibitor, single point] | – |
| CCOCCCNC(=O)CSCc1nc(-c2ccc(SC)cc2)oc1C | inconclusive [inhibitor, single point] | – |
| O=C(c1ccc(-n2cccc2)cc1)N1CCCCC1 | – | inactive: 0.113% |

| Compound | Potency | activity change, negative = inhibition |
| --- | --- | --- |
| COc1ccc(NC(=O)COc2ccc(N(C)S(=O)(=O)c3ccc(Cl)cc3)cc2)cc1 | active: 11.2 µM | – |
| Cc1cc(C)c[n+](CC(=O)c2ccc(-c3ccccc3)cc2)c1 | inconclusive [inhibitor, single point] | – |
| O=C(Nc1ccc(OC(F)(F)F)cc1)c1[nH]ncc1[N+](=O)[O-] | inconclusive [inhibitor, single point] | – |
| CC1CCN(C(=O)CSCC(=O)Nc2nc(-c3cccs3)cs2)CC1 | – | inactive: -2.08% |
| Cc1ccc([N+](=O)[O-])cc1NC(=O)c1ccoc1C | – | inactive: -1.78% |
| COc1ccc(CN(C)CC(=O)c2c(N)n(Cc3ccccc3)c(=O)n(C)c2=O)c(OC)c1 | inconclusive [inhibitor, partial curve] | – |
| COc1ccc(Cl)cc1C(=O)Nc1cccnc1 | inconclusive [inhibitor, single point] | – |
| CCOc1ccccc1-c1n[nH]c(=S)o1 | – | inactive: 10.7% |
| O=C(N/N=C/c1c(O)n(-c2ccccc2)c(=S)[nH]c1=O)c1ccccc1 | – | inactive: 1.05% |
| CN(NC(=O)c1ccccc1)c1nc2ccccc2nc1C(F)(F)F | inconclusive [inhibitor, full curve] | – |
| CCN(CC)CCC(=O)Nc1cccc2c1C(=O)c1ccccc1C2=O | – | inconclusive: -73.9% [inhibitor] |
| CCOc1ccc(C(=O)CN2CCN(S(=O)(=O)c3ccc(Br)cc3)CC2)cc1 | inconclusive [inhibitor, single point] | – |
| O=C(CC(c1ccccc1)C1CCCCC1=O)c1ccco1 (stereo unspecified) | inconclusive [inhibitor, single point] | – |
| COc1ccc(N2CC(O)=C(c3nc(-c4ccccc4)cs3)C2=N)cc1 | – | inactive: -12.7% |
| O=c1c2ccccc2nc(SCc2ccc([N+](=O)[O-])cc2)n1CCCO | inconclusive [inhibitor, single point] | – |
| CCNC(=S)N/N=C(\C)c1cccc(C(F)(F)F)c1 | inconclusive [inhibitor, partial curve, poor fit] | – |
| FC(F)(F)c1cc(-c2ccco2)nc(NCc2ccc(Cl)cc2)n1 | inconclusive [inhibitor, partial curve] | – |
| COC(=O)C1=C(c2cccc(OCc3ccccc3)c2)C[C@@H]2CC[C@H]1N2C(=O)NCc1ccc(C(C)(C)C)cc1 | active: 25.1 µM | – |
| COc1ccc(/C=C/CN2CCN(CC(C)C)C(CCO)C2)cc1 (stereo unspecified) | – | inactive: -0.493% |
| CN1CCN(CCCNC(=O)c2ccc(/C=C3\Sc4ccccc4N(Cc4ccccc4F)C3=O)cc2)CC1 | active: 10 µM | – |
| N#CCSc1nc2c(c(C3CC=CCC3)c1C#N)CCC2 (stereo unspecified) | inconclusive [inhibitor, single point] | – |
| O=C(Nc1ccc(S(=O)(=O)NC2=NCCCCC2)cc1)c1ccc(Cl)c([N+](=O)[O-])c1 | inconclusive [inhibitor, single point] | – |
| Nc1ccc2c(c1)N1CCN=C1S2 | – | inactive: 4.13% |
| Cc1ccc(/C=C/C(=O)N2CC(=O)Nc3ccccc32)o1 | – | inactive: 3.7% |

| Compound | Potency | activity change, negative = inhibition |
| --- | --- | --- |
| C=CCNc1nc(C)c(C(C)=O)cc1C#N | inconclusive [inhibitor, partial curve] | – |
| Cc1ccc(CNC(=O)Cn2cnc(C(=O)Nc3ccc(C)c(C)c3)n2)o1 | – | inactive: -3.8% |
| Cc1cccc(C(=O)n2c(=S)nc3cc(C)ccn32)c1 | – | inactive: -2.22% |
| COc1ccc(C(=O)Nn2c(SCC(=O)NCc3ccccc3)nc3ccccc3c2=O)cc1 | – | inactive: -2.99% |
| COC(=O)c1ccccc1NC(=O)Cn1cnc2cc(C)c(C)cc21 | inconclusive [inhibitor, partial curve] | – |
| COc1ccccc1NC(=O)c1cc(Cl)ccc1NC(=O)c1ccco1 | inconclusive [inhibitor, partial curve] | – |
| Cc1cccc2nc(CSc3nc4ccc([N+](=O)[O-])cc4[nH]3)c(Br)n12 | inconclusive [inhibitor, single point] | – |
| Cc1ccc(C(C)C)c(OCC(=O)Nc2sc3c(c2C#N)CC(C)(C)NC3(C)C)c1 | inconclusive [inhibitor, partial curve, poor fit] | – |
| Cc1cc(C)n2ncc(C(=O)O)c2n1 | – | inactive: 10% |
| COc1cc(S(=O)(=O)Nc2ncn[nH]2)ccc1Cl | inconclusive [inhibitor, single point] | – |
| CCCCC(O)(c1ccc(CC)cc1)C(CN1CCOCC1)c1ccccc1 (stereo unspecified) | inconclusive [inhibitor, single point] | – |
| O=C(COc1ccc(Cl)cc1)N(c1ccccc1Cl)C1CN2CCC1CC2 (stereo unspecified) | active: 10 µM | – |
| COc1ccccc1OCCOCCOc1c(C)cc(C)cc1Br | inconclusive [inhibitor, single point] | – |
| Cc1cc(C)cc(NC(=O)CCC(=O)Nc2nnc(C(F)(F)F)s2)c1 | – | inactive: -3.3% |
| CCN(CC)C(=O)c1ccc2c3c(cccc13)C(=O)N(CCc1ccc(OC)c(OC)c1)C2=O | inconclusive [inhibitor, full curve] | – |
| CCC(Sc1nc(C)cc(C)n1)C(=O)Nc1ccc(Cl)cn1 (stereo unspecified) | inconclusive [inhibitor, partial curve] | – |
| O=C(Nc1ccc(Cl)c(S(=O)(=O)N2CCCC2)c1)c1cc(=O)[nH]c2ccccc12 | inconclusive [inhibitor, full curve] | – |
| COc1ccc(-c2nc3cnccn3c2NC2CCCCC2)cc1-c1cccc(Cl)c1 | inconclusive [inhibitor, partial curve] | – |
| CCOc1cc(N2CCOCC2)c(OCC)cc1NC(=O)COc1ncnc2ccccc12 | inconclusive [inhibitor, partial curve] | – |
| COc1ccc(C(=O)Nc2ccc(NC(C)=O)cc2)cc1S(=O)(=O)N1CCCC1 | – | inactive: -1.83% |
| COc1ccc(Cn2cc([N+](=O)[O-])nc2C)cc1[N+](=O)[O-] | – | inactive: -9.77% |
| CN(CC(=O)Nc1ccc(F)cc1)C(=O)c1cc([N+](=O)[O-])ccc1N1CCOCC1 | inconclusive [inhibitor, single point] | – |
| CCCn1c(SCC(=O)Nc2cccc(C(=O)OCC)c2)nnc1-c1ccoc1C | inconclusive [inhibitor, single point] | – |

Source: PubChem BioAssay AID651820 (National Center for Advancing Translational Sciences (NCATS), 2012)
